# Assay results published in the supplement of paper PMC8728848.
# The list shows a part of the results.
# Legend:
# Assay in all cases: glycan array binding signal (z-score within array); higher = stronger binding
# Settings in all cases: glycan notation: IUPAC condensed, linker removed
# [1] = molecular target: Fuc(a1-2)Gal(b1-4)GlcNAc(b1-3)Gal(b1-4)GlcNAc(b1-3)Gal(b1-4)GlcNAc
# Procedure, shortened: (§1)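 Arrays were curated from the Consortium for Functional Glycomics database, 3228 in total, and kept only where the protein sequence was available. Binding is expressed as a within-array Z-score. This score was averaged across arrays of the same protein sequence at different concentrations or buffers and across linkers, and negative values can be read as non-binding.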
# [2] = molecular target: Fuc(a1-2)Gal(b1-4)GlcNAc(b1-3)GalNAc
# Procedure, shortened: as §1
# [3] = molecular target: Fuc(a1-2)Gal(b1-4)GlcNAc(b1-3)[Fuc(a1-2)Gal(b1-4)GlcNAc(b1-6)]GalNAc
# Procedure, shortened: as §1
# [4] = molecular target: Fuc(a1-2)Gal(b1-4)GlcNAc(b1-3)[Fuc(a1-3)[Gal(b1-4)]GlcNAc(b1-6)]Gal(b1-4)Glc
# Procedure, shortened: as §1
# [5] = molecular target: Fuc(a1-2)Gal(b1-4)GlcNAc(b1-6)GalNAc
# Procedure, shortened: as §1
# [6] = molecular target: Fuc(a1-2)Gal(b1-4)GlcNAc6S
# Procedure, shortened: as §1
# [7] = molecular target: Fuc(a1-2)Gal(b1-4)[Fuc(a1-3)]GlcNAc
# Procedure, shortened: as §1
# [8] = molecular target: Fuc(a1-2)Gal(b1-4)[Fuc(a1-3)]GlcNAc(b1-2)Man(a1-3)[Fuc(a1-2)Gal(b1-4)[Fuc(a1-3)]GlcNAc(b1-2)Man(a1-6)]Man(b1-4)GlcNAc(b1-4)[Fuc(a1-6)]GlcNAc
# Procedure, shortened: as §1
# [9] = molecular target: Fuc(a1-2)Gal(b1-4)[Fuc(a1-3)]GlcNAc(b1-2)[Fuc(a1-2)Gal(b1-4)[Fuc(a1-3)]GlcNAc(b1-4)]Man(a1-3)[Fuc(a1-2)Gal(b1-4)[Fuc(a1-3)]GlcNAc(b1-2)Man(a1-6)]Man(b1-4)GlcNAc(b1-4)GlcNAc
# Procedure, shortened: as §1
# [10] = molecular target: Fuc(a1-2)Gal(b1-4)[Fuc(a1-3)]GlcNAc(b1-3)Gal(b1-4)[Fuc(a1-3)]GlcNAc
# Procedure, shortened: as §1
# [11] = molecular target: Fuc(a1-2)Gal(b1-4)[Fuc(a1-3)]GlcNAc(b1-3)Gal(b1-4)[Fuc(a1-3)]GlcNAc(b1-3)Gal(b1-4)[Fuc(a1-3)]GlcNAc
# Procedure, shortened: as §1
# [12] = molecular target: Fuc(a1-2)Gal(b1-4)[Fuc(a1-3)]GlcNAc(b1-3)GalNAc
# Procedure, shortened: as §1
# [13] = molecular target: Fuc(a1-2)Gal(b1-4)[Fuc(a1-3)]GlcNAc(b1-3)[Neu5Ac(a2-6)Gal(b1-4)GlcNAc(b1-6)]Gal(b1-4)Glc
# Procedure, shortened: as §1
# [14] = molecular target: Fuc(a1-2)Gal3S(b1-4)GlcNAc
# Procedure, shortened: as §1
# [15] = molecular target: Fuc(a1-2)Gal6S(b1-3)GlcNAc
# Procedure, shortened: as §1
# [16] = molecular target: Fuc(a1-2)Gal6S(b1-3)GlcNAc6S
# Procedure, shortened: as §1
# [17] = molecular target: Fuc(a1-2)Gal6S(b1-4)Glc
# Procedure, shortened: as §1
# [18] = molecular target: Fuc(a1-2)Gal6S(b1-4)Glc6S
# Procedure, shortened: as §1
# [19] = molecular target: Fuc(a1-2)[Gal(a1-3)]Gal
# Procedure, shortened: as §1
# [20] = molecular target: Fuc(a1-2)[Gal(a1-3)]Gal(b1-3)GalNAc
# Procedure, shortened: as §1
# [21] = molecular target: Fuc(a1-2)[Gal(a1-3)]Gal(b1-3)GalNAc(b1-3)Gal(a1-4)Gal(b1-4)Glc
# Procedure, shortened: as §1
# [22] = molecular target: Fuc(a1-2)[Gal(a1-3)]Gal(b1-3)GlcNAc
# Procedure, shortened: as §1
# [23] = molecular target: Fuc(a1-2)[Gal(a1-3)]Gal(b1-3)GlcNAc(b1-2)Man(a1-3)[Fuc(a1-2)[Gal(a1-3)]Gal(b1-3)GlcNAc(b1-2)Man(a1-6)]Man(b1-4)GlcNAc(b1-4)GlcNAc
# Procedure, shortened: as §1
# [24] = molecular target: Fuc(a1-2)[Gal(a1-3)]Gal(b1-3)GlcNAc(b1-2)Man(a1-3)[Fuc(a1-2)[Gal(a1-3)]Gal(b1-3)GlcNAc(b1-2)Man(a1-6)]Man(b1-4)GlcNAc(b1-4)[Fuc(a1-6)]GlcNAc
# Procedure, shortened: as §1
# [25] = molecular target: Fuc(a1-2)[Gal(a1-3)]Gal(b1-3)GlcNAc(b1-3)GalNAc
# Procedure, shortened: as §1
# [26] = molecular target: Fuc(a1-2)[Gal(a1-3)]Gal(b1-3)GlcNAc(b1-6)GalNAc
# Procedure, shortened: as §1
# [27] = molecular target: Fuc(a1-2)[Gal(a1-3)]Gal(b1-4)Glc
# Procedure, shortened: as §1
# [28] = molecular target: Fuc(a1-2)[Gal(a1-3)]Gal(b1-4)GlcNAc
# Procedure, shortened: as §1
# [29] = molecular target: Fuc(a1-2)[Gal(a1-3)]Gal(b1-4)GlcNAc(b1-2)Man
# Procedure, shortened: as §1
# [30] = molecular target: Fuc(a1-2)[Gal(a1-3)]Gal(b1-4)GlcNAc(b1-2)Man(a1-3)[Fuc(a1-2)[Gal(a1-3)]Gal(b1-4)GlcNAc(b1-2)Man(a1-6)]Man(b1-4)GlcNAc(b1-4)GlcNAc
# Procedure, shortened: as §1
# [31] = molecular target: Fuc(a1-2)[Gal(a1-3)]Gal(b1-4)GlcNAc(b1-2)Man(a1-3)[Fuc(a1-2)[Gal(a1-3)]Gal(b1-4)GlcNAc(b1-2)Man(a1-6)]Man(b1-4)GlcNAc(b1-4)[Fuc(a1-6)]GlcNAc
# Procedure, shortened: as §1
# [32] = molecular target: Fuc(a1-2)[Gal(a1-3)]Gal(b1-4)GlcNAc(b1-3)GalNAc
# Procedure, shortened: as §1
# [33] = molecular target: Fuc(a1-2)[Gal(a1-3)]Gal(b1-4)GlcNAc(b1-3)[Fuc(a1-2)[Gal(a1-3)]Gal(b1-4)GlcNAc(b1-6)]GalNAc
# Procedure, shortened: as §1
# [34] = molecular target: Fuc(a1-2)[Gal(a1-3)]Gal(b1-4)GlcNAc(b1-6)GalNAc
# Procedure, shortened: as §1
# [35] = molecular target: Fuc(a1-2)[Gal(a1-3)]Gal(b1-4)[Fuc(a1-3)]Glc
# Procedure, shortened: as §1
# [36] = molecular target: Fuc(a1-2)[Gal(a1-3)]Gal(b1-4)[Fuc(a1-3)]GlcNAc
# Procedure, shortened: as §1
# [37] = molecular target: Fuc(a1-2)[Gal(a1-3)]Gal(b1-4)[Fuc(a1-3)]GlcNAc(b1-3)GalNAc
# Procedure, shortened: as §1
binder,measurement,setting,value
PX9961H-bth-557-24-557 (Bacteroides thetaiotaomicron) (protein) EETRTEVEKKNYMNNAEEAKDVLLGVYRTNTLDAMYGYYLSILFNLGTDISQVEGSGNENFRIIPTNSFPTTQSEVQQTWAALYTGIYRANDFLERISNKIGSYTTTDKKLATLYIAEARALRGMFYFELVRRFGNVVLMTSTQMSNQNPATYVQSAPEKVYEYIEDDLLYACDILPYATDDQYRESNDYRFSKGAALGLLTKVYATWAGYPVKDESKWEAAAKTARILVESGKHGLLKDYEQLWKNTCNGTWDPTESLIEISFYSPTVSGNSDPVGRIGKWNGVKTTAIAGVRGSCAANVKVVHTFVLDWREDVSDIRRDLSIANYQYTDTKKSLWVAGASDTDESAAEKDADPTKAQKNKQNYTPAKWDIQKYVTTNSFINNDKSNVNWYFLRYADVLLLYAEALNEWKHGPDAEAYNAINAVRRRGYGNPSNTSACDLPQGLDETSFREAVRKERSYELSFEGHRRQDLIRWGIYYKTVQATAKELGYWWEGTGSPNYSVATYTEEGKHELFPIPQRDMDLCIQFNQNPKW,glycan array binding signal (z-score),[1],-0.539
same,glycan array binding signal (z-score),[2],0.047
same,glycan array binding signal (z-score),[3],-0.242
same,glycan array binding signal (z-score),[4],-0.46
same,glycan array binding signal (z-score),[5],-0.051
same,glycan array binding signal (z-score),[6],-0.38
same,glycan array binding signal (z-score),[7],-0.445
same,glycan array binding signal (z-score),[8],-0.11
same,glycan array binding signal (z-score),[9],-0.155
same,glycan array binding signal (z-score),[10],-0.479
same,glycan array binding signal (z-score),[11],-0.125
same,glycan array binding signal (z-score),[12],1.45
same,glycan array binding signal (z-score),[13],0.244
same,glycan array binding signal (z-score),[14],0.014
same,glycan array binding signal (z-score),[15],-0.593
same,glycan array binding signal (z-score),[16],0.185
same,glycan array binding signal (z-score),[17],-0.436
same,glycan array binding signal (z-score),[18],-0.278
same,glycan array binding signal (z-score),[19],-0.17
same,glycan array binding signal (z-score),[20],-0.242
same,glycan array binding signal (z-score),[21],0.058
same,glycan array binding signal (z-score),[22],-0.095
same,glycan array binding signal (z-score),[23],-0.405
same,glycan array binding signal (z-score),[24],-0.179
same,glycan array binding signal (z-score),[25],-0.634
same,glycan array binding signal (z-score),[26],-0.16
same,glycan array binding signal (z-score),[27],-0.362
same,glycan array binding signal (z-score),[28],-0.408
same,glycan array binding signal (z-score),[29],-0.397
same,glycan array binding signal (z-score),[30],1.82
same,glycan array binding signal (z-score),[31],0.043
same,glycan array binding signal (z-score),[32],0.576
same,glycan array binding signal (z-score),[33],-0.28
same,glycan array binding signal (z-score),[34],-0.29
same,glycan array binding signal (z-score),[35],-0.287
same,glycan array binding signal (z-score),[36],-0.18
same,glycan array binding signal (z-score),[37],-0.074
